Data on 84 compounds can be found in ChEMBL document CHEMBL4888484, “Replenishing the malaria drug discovery pipeline: Screening and hit evaluation of the MMV Hit Generation Library 1 (HGL1) against asexual blood stage Plasmodium falciparum ,using a nano luciferase reporter read-out” (2022).

The campaign covered roughly 150,000 compounds. About 540 (0.36%) showed an effect of 50% or more. This is one part of the list.

The subject of this test is Plasmodium falciparum. Put plainly: Primary screen in NF54 nanoGlo assay, in single point, at 2uM, 72h; a lower Z score goes with more inhibition. It is filed as functional, Erythrocyte. The note with it: timepoint 72 hour.
For the compound `O=C(Cn1c(=O)n(Cc2ccccc2F)c(=O)c2sccc21)N[C@H]1CCc2ccccc21`, the “% Inhibition” value is reported as -8% and the Z score is 0.99.
As to `O=c1cc(CN(Cc2cccnc2)Cc2ccco2)[nH]c2ccnn12`, the “% Inhibition” value is recorded as -10% and the Z score was determined as 1.69.
On to `CC(C)(C)[C@@H](O)CCNC(=O)CC1CCCC1`, for which the “% Inhibition” value is recorded as -6% and the Z score is listed as 1.29.
Turning to `COc1cccc(OC)c1C(=O)Nc1ccc(N2CCCCC2=O)c(C)c1`, the “% Inhibition” value was -8% and the Z score was 1.25.
Consider `COc1ccc(Cc2nc(-c3ccc4c(c3)nc(C)c(=O)n4C3CCCC3)no2)cc1OC`, for which the “% Inhibition” value is given as -6% and the Z score was 0.62.
For the compound `CCOC(=O)c1ccc(N(C)Cc2ccc3c(c2)OCO3)nc1`, the “% Inhibition” value was found to be 0% and the Z score is listed as -0.01.
Take `CN1CCO[C@@H](CNCCOc2ccccc2C#N)C1`: the “% Inhibition” value turned out to be 5% and the Z score is -0.74.
On the same counts, the results for `C[C@@H](c1ccccc1)N(C)Cc1nccn1C1CC1` are -8% and 1.08.
On the same counts, the results for `Cc1csc(N(C(=O)CC[C@H]2CCCO2)C2CC2)n1` are -14% and 1.84.
For the compound `CCOc1ccc(C/C(=C/N)c2nc(-c3ccc(Cl)cc3)cs2)cc1`, the “% Inhibition” value came out at 46% and the Z score is listed as -5.17.
Take `CCOC(=O)N1CCN(C(=O)c2c(O)c3cccc4c3n(c2=O)CC4)CC1`: the “% Inhibition” value came to 8% and the Z score is given as -0.94.
As for `Cc1ccc(CNC(=O)C2CCC(=O)N(C)C2c2cccc(F)c2)o1` (stereo not drawn), the “% Inhibition” value is reported as -2% and the Z score was 0.37.
Consider `COc1ccc2c(c1)-c1nc(-n3ncc(C(=O)N4CCC(CO)CC4)c3C3CC3)ncc1CC2`, for which the “% Inhibition” value is 0% and the Z score was 0.02.
With `Cc1cccc(-c2ncc(C(=O)N[C@H]3CCCCNC3=O)c(O)n2)c1`, the “% Inhibition” value is recorded as -3% and the Z score worked out at 0.64.
In the case of `CCc1ccc(C(=O)NCc2nnc(CC)o2)[nH]1`, the “% Inhibition” value stood at 6% and the Z score is -0.75.
Regarding `CCN1C(=O)C(C)(C)N[C@]1(C)Cc1ccc(O)cc1`, the “% Inhibition” value is recorded as -8% and the Z score came to 0.78.
`Cc1cc(=O)n2nc(CN(C)c3cnn(C)c3)sc2n1`: the “% Inhibition” value was -6% and the Z score is 1.14.
Take `CN(C)c1ccccc1C(=O)N[C@H]1CC(=O)N(CCCc2ccccc2)C1`: the “% Inhibition” value is 1% and the Z score is listed as -0.09.
As to `CC(=O)N(c1nc(COc2nc(C(C)(C)C)no2)cs1)c1ccccc1F`, the “% Inhibition” value was determined as 42% and the Z score is on record as -1.58.
In the case of `Cc1cn2nc(NCc3cccs3)sc2n1`, the “% Inhibition” value is recorded as 3% and the Z score is -0.43.
Consider `OC[C@@H](Nc1nc(-c2ccncc2)nc2c1CCNCC2)c1ccccc1`, for which the “% Inhibition” value came out at 5% and the Z score is on record as -0.56.
On the same counts, the results for `CC(C)[C@@](C)(C#N)NC(=O)c1ccccc1F` are -10% and 1.11.
Regarding `O=C(CCOCC(F)(F)F)NC(c1cccs1)c1cccs1`, the “% Inhibition” value is recorded as 4% and the Z score is given as -0.6.
As for `CN(C(N)=NCCN1CCc2c(Cl)cccc2C1)C1CC1`, the “% Inhibition” value stood at 8% and the Z score is listed as -1.07.
`Fc1ccc(-c2cncc(CN3CCCC3)c2)c(F)c1`: the “% Inhibition” value is -5% and the Z score is 0.48.
For `O=C(Cn1c(-c2cccs2)cc2cc(F)ccc21)N1CCN(c2cccc(Cl)c2)CC1`, the “% Inhibition” value was -1% and the Z score turned out to be 0.14.
On the same counts, the results for `Cc1cnc(C(=O)NC[C@H]2CCCN(Cc3cccc(O)c3)C2)cn1` are -7% and 1.09.
On to `Cc1ccc(-c2ncn(C3CCCCC3)c2-c2ccc(C(=O)NCCCN3CCOCC3)o2)cc1`, for which the “% Inhibition” value is given as 0% and the Z score is -0.06.
In the case of `Cc1ccc(Nc2cc(C)n3c(=O)n(Cc4ccc(F)cc4)nc3n2)cc1`, the “% Inhibition” value was -12% and the Z score stood at 1.25.
`CCCN(C[C@H]1CCCCO1)C(=O)c1ccoc1`: the “% Inhibition” value is -8% and the Z score is listed as 0.81.
As to `COCC(C)(CNC(=O)CC1C=CCC1)NC(=O)CC1C=CCC1` (stereo not drawn), the “% Inhibition” value turned out to be 3% and the Z score was -0.44.
`CC1(C)OCC[C@@H]1CNC(=O)N[C@H]1C[C@H](c2cccc(Cl)c2)C1`: the “% Inhibition” value is recorded as 27% and the Z score is -3.57.
For `CC(C)(C)NC(=O)N1CCC(=C2CCC2)CC1`, the “% Inhibition” value is reported as -15% and the Z score is recorded as 2.33.
`c1cc(COc2ccc(N3CCCC3)cc2)no1`: the “% Inhibition” value worked out at 31% and the Z score is given as -3.52.
For the compound `CCN(CC(=O)N1CCCCCC1)C(=O)c1cc(F)cc2ccoc12`, the “% Inhibition” value is on record as -1% and the Z score is on record as 0.11.
On the same counts, the results for `O=C(NCc1ccnc(N2CCCCCC2)c1)NC1CC2CCC1O2` (stereo not drawn) are -1% and 0.21.
For the compound `O=C(CCc1nc(-c2ccsc2)no1)NCc1ccc(C2CC2)cc1`, the “% Inhibition” value is given as 2% and the Z score is on record as -0.2.
On the same counts, the results for `COc1cc(CN2CCCN(c3ccc(C)cc3NC(=O)c3ccccc3OC)C2=O)cc(OC)c1` are -3% and 0.43.
`Cc1c[nH]c(CN2CCC[C@H](CCC(=O)N3CCOCC3)C2)n1`: the “% Inhibition” value is reported as 11% and the Z score is reported as -1.65.
Consider `O=C1C(=O)N(C/C=C/c2ccccc2)c2ccccc21`, for which the “% Inhibition” value is recorded as -33% and the Z score turned out to be 3.85.
As for `CC(C)c1ccc([C@@H](NC(=O)CN2CCCN(C)CC2)C(C)C)cc1`, the “% Inhibition” value is -10% and the Z score was determined as 1.46.
For `CN(C)CCNC(=O)c1cc2c(n1C)CCN(Cc1ccc(F)cc1)C2`, the “% Inhibition” value is reported as 6% and the Z score is -0.68.
Turning to `CCn1c(CCc2ccc(NC(=O)c3ccc(F)cc3)cc2)nc2ccccc21`, the “% Inhibition” value was -9% and the Z score turned out to be 0.86.
With `O=C(c1cc2n(n1)CCC2)N1CC2(CC2)c2ccccc21`, the “% Inhibition” value is -2% and the Z score is 0.25.
Regarding `C[C@@H](c1nc2c(s1)CCCC2)n1cc(-c2ccc(CO)o2)nn1`, the “% Inhibition” value was determined as 5% and the Z score was -0.64.
On to `COC1CCC(CC(=O)N[C@H]2CC(=O)N(c3ccccc3)C2)CC1` (stereo partly drawn), for which the “% Inhibition” value came to 31% and the Z score was -0.94.
Take `CC(C)c1csc(CNC(=O)c2ccc(CO)nc2)n1`: the “% Inhibition” value is reported as -10% and the Z score is listed as 1.59.
As to `COc1ccc(C(=O)N2CCN(c3cc(C)n4c(C)nnc4n3)CC2)cc1`, the “% Inhibition” value is on record as -13% and the Z score is 1.66.
On the same counts, the results for `Cc1cccc2oc(CCNS(=O)(=O)Cc3ccccc3)nc12` are 2% and -0.21.
As for `Cc1cc(-c2noc(CNC(=O)c3sc(C)nc3C)n2)no1`, the “% Inhibition” value is reported as -10% and the Z score is 1.3.
For `CCn1nc(-c2ccc(C)c(S(=O)(=O)NCc3ccc(C)cc3)c2)c2c(c1=O)CCCC2`, the “% Inhibition” value was -4% and the Z score is on record as 0.66.
On the same counts, the results for `Cc1cccc(=O)n1CC(C)(O)C(=O)NC1CCCc2ccccc21` (stereo not drawn) are -11% and 1.71.
For `CC(C)c1ccc(C#N)c(N[C@H]2C[C@H]3OCC[C@@H]23)n1`, the “% Inhibition” value is on record as 0% and the Z score is -0.09.
In the case of `CC(=O)Nc1cc(C(=O)N(C)CCCN2CCCCC2)cc2ncn(CCc3ccccn3)c12`, the “% Inhibition” value is -8% and the Z score was found to be 1.19.
Take `COc1ccc(C(=O)N2CCN(c3ccc(NC(=O)c4cccs4)cc3C(=O)NCc3ccc(F)cc3)CC2)cc1`: the “% Inhibition” value is recorded as -4% and the Z score worked out at 0.65.
For the compound `Cc1cccc(-c2noc(N3CCOCC3)c2CN(C(=O)C2CCCC2)C2CC2)c1`, the “% Inhibition” value was found to be 3% and the Z score is given as -0.47.
On the same counts, the results for `Cc1nc(C(=O)NC[C@@H](c2sccc2C)N(C)C)cs1` are -8% and 1.44.
On the same counts, the results for `Cc1csc(CNC(=O)C(=O)NCCc2ccc3c(c2)OCO3)n1` are 0% and -0.08.
In the case of `c1ccc(COc2ccc(-c3cn[nH]c3)cc2)cc1`, the “% Inhibition” value is listed as -12% and the Z score is 1.58.
In the case of `CNCCc1c(-c2ccccc2)[nH]n(-c2ccccc2)c1=O`, the “% Inhibition” value is listed as 82% and the Z score is on record as -6.33.
On the same counts, the results for `Cc1noc(C)c1NC(=O)N1CCS(=O)(=O)CC1` are 1% and -0.18.
`O=C(NCCN1CCN(c2cccc(Cl)c2)CC1)c1n[nH]c2c1COc1ccccc1-2`: the “% Inhibition” value is -5% and the Z score stood at 0.84.
As for `CC(=O)NC1CCC(NCCOc2cccc(Cl)c2)CC1` (stereo not drawn), the “% Inhibition” value is given as -11% and the Z score is listed as 2.04.
On to `CC(C)(C)C(=O)NCCCC(=O)N(CC1CC1)CC(F)(F)F`, for which the “% Inhibition” value is reported as 0% and the Z score is recorded as -0.02.
With `Cc1nn(CC(=O)Nc2csnc2-c2cccc(C(F)(F)F)c2)c(=O)n1C`, the “% Inhibition” value came to 6% and the Z score is listed as -0.72.
As to `C[C@H](NS(C)(=O)=O)c1ncnn1C1Cc2ccccc2C1`, the “% Inhibition” value is listed as -8% and the Z score is 0.99.
For `C[C@H]1CN(c2nccnc2C#N)CCN1c1nccc(C(F)(F)F)n1`, the “% Inhibition” value was -5% and the Z score is 0.9.
As for `CC(C)(C)OC(=O)N[C@H]1CCN(c2ccc(-c3ccccc3F)nn2)C1`, the “% Inhibition” value is listed as -1% and the Z score is 0.15.
For `CC(=O)N1CCN(C(=O)c2c(-c3cccs3)noc2[C@H](C)O)CC1`, the “% Inhibition” value was -4% and the Z score was 0.6.
On the same counts, the results for `Cc1ccc([C@@H]2c3[nH]c4ccccc4c3CCN2S(=O)(=O)c2cccc(F)c2)cc1` are -9% and 1.1.
With `Cc1ccc(Cl)cc1NCC(=O)NCC(F)(F)F`, the “% Inhibition” value stood at 3% and the Z score is -0.42.
On the same counts, the results for `Cc1ccc(-c2nc(CN(C)[C@H]3CCS(=O)(=O)C3)co2)c(C)c1` are -11% and 1.72.
On the same counts, the results for `CC(C)(C)CC(=O)NC[C@H](Cc1cccnc1)C(=O)O` are 1% and -0.19.
For `C[C@@H]1Oc2ccc(NC(=O)c3occc3-c3ccccc3)cc2NC1=O`, the “% Inhibition” value was -13% and the Z score came to 1.21.
On the same counts, the results for `Cc1ccc(CNC(=O)CCc2nnc(C(=O)Nc3ccc(F)cc3)s2)o1` are -9% and 1.57.
Take `Cc1cc(C)nc(CCNc2nc3c(s2)c(C)nn3C)n1`: the “% Inhibition” value stood at 8% and the Z score is reported as -0.75.
On to `Cc1c(-c2ccc(F)cc2)nn2c(-c3ccncc3)ccnc12`, for which the “% Inhibition” value was -8% and the Z score amounted to 1.16.
For the compound `O=C1N(Cc2ccccc2F)CCC[C@@]12CCN(Cc1cccnc1)C2`, the “% Inhibition” value is given as 2% and the Z score is on record as -0.31.
Regarding `O=C(Nc1nccs1)c1ccc2c(c1)OCCO2`, the “% Inhibition” value is -18% and the Z score was 3.39.
With `O=C(Cc1ccccc1)Nc1ccc(N2CCCN(Cc3cccc(C(F)(F)F)c3)C2=O)cc1`, the “% Inhibition” value is -10% and the Z score is 1.28.
Turning to `COc1cc2c(-c3ccccc3)c(C)oc2cc1CN1CCN(C)CC1`, the “% Inhibition” value is given as -13% and the Z score turned out to be 1.95.
On the same counts, the results for `Cc1sc(-c2cc(C(F)(F)F)[nH]n2)cc1S(=O)(=O)N1CCN(C)C(=O)C1` are -9% and 1.79.
On the same counts, the results for `CCO[C@H](c1noc(CCn2cccn2)n1)C1CCCC1` are -11% and 1.48.
Consider `O=C(NC1(c2c(F)cccc2F)CCCC1)[C@H]1CCS(=O)(=O)C1`, for which the “% Inhibition” value is reported as -5% and the Z score came to 0.97.
